In the supplement of paper PMC4604168 (melanoma cell lines):
This is one part of the list. Repeats are few or missing, and single values can be far off.

How the values were obtained:
Test in all cases: cell count relative to DMSO control; melanoma cells; higher = more viable cells
Conditions in all cases: library dose: standard library concentration; 72 h
501Mel = test system: 501Mel
A101D = test system: A101D
A2058 = test system: A2058
A375 = test system: A375
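Further: cells treated in 1,536-well plates, then fixed and DAPI-stained, with nuclei counted from automated high-throughput microscope images.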

Compound	cell count (501Mel) [%]	cell count (A101D) [%]	cell count (A2058) [%]	cell count (A375) [%]
CCN(CC)CCCCNc1ncc2cc(-c3cc(OC)cc(OC)c3)c(NC(=O)NC(C)(C)C)nc2n1 + O=C(Oc1ccc([N+](=O)[O-])cc1)N1CCC(C(O)(c2ccc3c(c2)OCO3)c2ccc3c(c2)OCO3)CC1 [JZL184] (first compound 0.5 µM, partner dose 5 µM)	80.3	94.6	99.6	122
COc1cc([C@@H]2c3cc4c(cc3[C@@H](O[C@@H]3O[C@@H]5CO[C@@H](C)O[C@H]5[C@H](O)[C@H]3O)[C@H]3COC(=O)[C@H]23)OCO4)cc(OC)c1O [etoposide] + C/C(O)=C(\C#N)C(=O)Nc1cc(Br)ccc1Br [LFM-A13] (first compound 0.1 µM, partner dose 10 µM)	112	108	83.2	77.6
Nc1cccc2c1CN(C1CCC(=O)NC1=O)C2=O (stereo not drawn) [lenalidomide] + C/C(O)=C(\C#N)C(=O)Nc1cc(Br)ccc1Br [LFM-A13] (first compound 5 µM, partner dose 10 µM)	106	112	93.5	98.3
CC[C@]1(O)C[C@H]2CN(CCc3c([nH]c4ccccc34)[C@@](C(=O)OC)(c3cc4c(cc3OC)N(C=O)[C@H]3[C@@](O)(C(=O)OC)[C@H](OC(C)=O)[C@]5(CC)C=CCN6CC[C@]43[C@@H]65)C2)C1 [vincristine] + N.N.[Cl][Pt][Cl] [cisplatin] (first compound 0.0005 µM, partner dose 8 µM)		72.4	74.6	97.5
Cc1ccc(Nc2nccc(N(C)c3ccc4c(C)n(C)nc4c3)n2)cc1S(N)(=O)=O [Pazopanib] + Cn1cc(C2=C(c3cn(C4CCN(Cc5ccccn5)CC4)c4ccccc34)C(=O)NC2=O)c2ccccc21 [Enzastaurin] (first compound 2 µM, partner dose 4 µM)		87.9	83.6	106
O=C(/C=C/c1cccnc1)NCCCCC1CCN(C(=O)c2ccccc2)CC1 + Cn1cc(C2=C(c3cn(C4CCN(Cc5ccccn5)CC4)c4ccccc34)C(=O)NC2=O)c2ccccc21 [Enzastaurin] (first compound 0.05 µM, partner dose 4 µM)		92.7	102	105
NC(=O)c1ccc(N(C(N)=O)c2c(F)cccc2F)nc1-c1ccc(F)cc1F + C[C@]12O[C@H](C[C@]1(O)CO)n1c3ccccc3c3c4c(c5c6ccccc6n2c5c31)CNC4=O [Lestaurtinib] (first compound 2 µM, partner dose 0.02 µM)		65.4	90.6	77.2
NC(=O)c1ccc(N(C(N)=O)c2c(F)cccc2F)nc1-c1ccc(F)cc1F + C[As](C)SC[C@H](NC(=O)CC[C@H](N)C(=O)O)C(=O)NCC(=O)O [Darinaparsin] (first compound 2 µM, partner dose 2 µM)		109	102	107
O=C(Nc1cc(C(F)(F)F)cc(C(F)(F)F)c1)c1cc(Cl)ccc1O + N.N.[Cl][Pt][Cl] [cisplatin] (first compound 0.08 µM, partner dose 8 µM)		91	102	81.7
CCCCCCCCCCCCCCCCCCOP(=O)([O-])OC1CC[N+](C)(C)CC1 [Perifosine] + Cn1cc(C2=C(c3cn(C4CCN(Cc5ccccn5)CC4)c4ccccc34)C(=O)NC2=O)c2ccccc21 [Enzastaurin] (first compound 2 µM, partner dose 4 µM)		97.7	98.8	91.7
Cc1ccc(Nc2nccc(N(C)c3ccc4c(C)n(C)nc4c3)n2)cc1S(N)(=O)=O [Pazopanib] + C[As](C)SC[C@H](NC(=O)CC[C@H](N)C(=O)O)C(=O)NCC(=O)O [Darinaparsin] (first compound 2 µM, partner dose 2 µM)		86.3	81.2	75
OCc1c[nH]c2ccccc12 [Indole-3-carbinol] + C[As](C)SC[C@H](NC(=O)CC[C@H](N)C(=O)O)C(=O)NCC(=O)O [Darinaparsin] (first compound 4 µM, partner dose 2 µM)		89.9	112	68.7
CC[C@]1(O)C[C@H]2CN(CCc3c([nH]c4ccccc34)[C@@](C(=O)OC)(c3cc4c(cc3OC)N(C=O)[C@H]3[C@@](O)(C(=O)OC)[C@H](OC(C)=O)[C@]5(CC)C=CCN6CC[C@]43[C@@H]65)C2)C1 [vincristine] + C[C@]12O[C@H](C[C@]1(O)CO)n1c3ccccc3c3c4c(c5c6ccccc6n2c5c31)CNC4=O [Lestaurtinib] (first compound 0.0005 µM, partner dose 0.02 µM)		63.5	68.9	78.1
Cn1cnc2c(F)c(Nc3ccc(Br)cc3Cl)c(C(=O)NOCCO)cc21 [selumetinib] + N.N.[Cl][Pt][Cl] [cisplatin] (first compound 0.075 µM, partner dose 8 µM)		73.9	99.7	102
O=c1[nH]nc(Sc2ncc([N+](=O)[O-])s2)n1-c1ccc2c(c1)OCCO2 + C[As](C)SC[C@H](NC(=O)CC[C@H](N)C(=O)O)C(=O)NCC(=O)O [Darinaparsin] (first compound 1 µM, partner dose 2 µM)		85.9	69.9	72.7
